Assay results: article PMC5501724, “Structural Basis for Specific Interaction of TGFβ Signaling Regulators SARA/Endofin with HD-PTP” (Structure(London, England:1993), 2017)
Results are given in words; binding and its absence hold for the method and conditions named. Some results given as binding are weak or reduced against the parent protein; the word gives no strength.

T1: HD-PTP_(Bro1-CC), yeast two-hybrid construct (human) (UniProt Q9H3S7)
T1 sequence: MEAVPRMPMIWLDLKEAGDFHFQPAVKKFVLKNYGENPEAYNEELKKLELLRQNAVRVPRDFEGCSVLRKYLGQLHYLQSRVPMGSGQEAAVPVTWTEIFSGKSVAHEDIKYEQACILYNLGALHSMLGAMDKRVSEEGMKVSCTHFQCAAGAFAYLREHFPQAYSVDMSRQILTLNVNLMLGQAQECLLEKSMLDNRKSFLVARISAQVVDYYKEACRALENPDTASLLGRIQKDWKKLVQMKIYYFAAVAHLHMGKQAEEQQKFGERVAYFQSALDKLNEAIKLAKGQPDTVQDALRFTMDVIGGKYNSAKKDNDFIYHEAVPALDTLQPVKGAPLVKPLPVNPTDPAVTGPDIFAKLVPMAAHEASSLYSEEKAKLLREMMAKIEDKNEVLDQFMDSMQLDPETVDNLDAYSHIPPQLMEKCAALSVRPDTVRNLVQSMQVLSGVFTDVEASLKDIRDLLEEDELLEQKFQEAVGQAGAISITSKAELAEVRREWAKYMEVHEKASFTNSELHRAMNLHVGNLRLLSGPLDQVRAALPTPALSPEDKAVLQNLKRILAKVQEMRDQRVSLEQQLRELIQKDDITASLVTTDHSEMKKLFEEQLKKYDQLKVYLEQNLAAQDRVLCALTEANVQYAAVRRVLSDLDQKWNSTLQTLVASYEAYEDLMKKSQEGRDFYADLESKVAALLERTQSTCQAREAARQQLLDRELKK


What was measured:
[1] = molecular target: HD-PTPFL (full-length), yeast two-hybrid construct (human) (UniProt Q9H3S7); experiment: two-hybrid; directed yeast two-hybrid, Clontech Matchmaker Gold, Y2H Gold strain; interactions selected on QDO plates with 0.4% glucose and 1% galactose; in triplicate
[2] = molecular target: T1, HD-PTP_(Bro1-CC), yeast two-hybrid construct (human); experiment: as above

binding [1]	binding [2]	Binder
binds	binds	full-length SARA, yeast two-hybrid construct (protein, UniProt O95405 1-1425) MENYFQAEAYNLDKVLDEFEQNEDETVSSTLLDTKWNKILDPPSHRLSFNPTLASVNESAVSNESQPQLKVFSLAHSAPLTTEEEDHCANGQDCNLNPEIATMWIDENAVAEDQLIKRNYSWDDQCSAVEVGEKKCGNLACLPDEKNVLVVAVMHNCDKRTLQNDLQDCNNYNSQSLMDAFSCSLDNENRQTDQFSFSINESTEKDMNSEKQMDPLNRPKTEGRSVNHLCPTSSDSLASVCSPSQLKDDGSIGRDPSMSAITSLTVDSVISSQGTDGCPAVKKQENYIPDEDLTGKISSPRTDLGSPNSFSHMSEGILMKKEPAEESTTEESLRSGLPLLLKPDMPNGSGRNNDCERCSDCLVPNEVRADENEGYEHEETLGTTEFLNMTEHFSESQDMTNWKLTKLNEMNDSQVNEEKEKFLQISQPEDTNGDSGGQCVGLADAGLDLKGTCISESEECDFSTVIDTPAANYLSNGCDSYGMQDPGVSFVPKTLPSKEDSVTEEKEIEESKSECYSNIYEQRGNEATEGSGLLLNSTGDLMKKNYLHNFCSQVPSVLGQSSPKVVASLPSISVPFGGARPKQPSNLKLQIPKPLSDHLQNDFPANSGNNTKNKNDILGKAKLGENSATNVCSPSLGNISNVDTNGEHLESYEAEISTRPCLALAPDSPDNDLRAGQFGISARKPFTTLGEVAPVWVPDSQAPNCMKCEARFTFTKRRHHCRACGKVFCASCCSLKCKLLYMDRKEARVCVICHSVLMNAQAWENMMSASSQSPNPNNPAEYCSTIPPLQQAQASGALSSPPPTVMVPVGVLKHPGAEVAQPREQRRVWFADGILPNGEVADAAKLTMNGTSSAGTLAVSHDPVKPVTTSPLPAETDICLFSGSITQVGSPVGSAMNLIPEDGLPPILISTGVKGDYAVEEKPSQISVMQQLEDGGPDPLVFVLNANLLSMVKIVNYVNRKCWCFTTKGMHAVGQSEIVILLQCLPDEKCLPKDIFNHFVQLYRDALAGNVVSNLGHSFFSQSFLGSKEHGGFLYVTSTYQSLQDLVLPTPPYLFGILIQKWETPWAKVFPIRLMLRLGAEYRLYPCPLFSVRFRKPLFGETGHTIMNLLADFRNYQYTLPVVQGLVVDMEVRKTSIKIPSNRYNEMMKAMNKSNEHVLAGGACFNEKADSHLVCVQNDDGNYQTQAISIHNQPRKVTGASFFVFSGALKSSSGYLAKSSIVEDGVMVQITAENMDSLRQALREMKDFTITCGKADAEEPQEHIHIQWVDDDKNVSKGVVSPIDGKSMETITNVKIFHGSEYKANGKVIRWTEVFFLENDDQHNCLSDPADHSRLTEHVAKAFCLALCPHLKLLKEDGMTKLGLRVTLDSDQVGYQAGSNGQPLPSQYMNDLDSALVPVIHGGACQLSEGPVVMELIFYILENIV
no binding	no binding	endofin(85–1,539), yeast two-hybrid construct (domain or fragment, UniProt Q7Z3T8 85-1539) LKGLTSIQNEKNVTGLDLLSSVDGGTSDEIQPLYMGRCSKPICDLISDMGNLVHATNSEEDIKKLLPDDFKSNADSLIGLDLSSVSDTPCVSSTDHDSDTVREQQNDISSELQNREIGGIKELGIKVDTTLSDSYNYSGTENLKDKKIFNQLESIVDFNMSSALTRQSSKMFHAKDKLQHKSQPCGLLKDVGLVKEEVDVAVITAAECLKEEGKTSALTCSLPKNEDLCLNDSNSRDENFKLPDFSFQEDKTVIKQSAQEDSKSLDLKDNDVIQDSSSALHVSSKDVPSSLSCLPASGSMCGSLIESKARGDFLPQHEHKDNIQDAVTIHEEIQNSVVLGGEPFKENDLLKQEKCKSILLQSLIEGMEDRKIDPDQTVIRAESLDGGDTSSTVVESQEGLSGTHVPESSDCCEGFINTFSSNDMDGQDLDYFNIDEGAKSGPLISDAELDAFLTEQYLQTTNIKSFEENVNDSKSQMNQIDMKGLDDGNINNIYFNAEAGAIGESHGINIICEIVDKQNTIENGLSLGEKSTIPVQQGLPTSKSEITNQLSVSDINSQSVGGARPKQLFSLPSRTRSSKDLNKPDVPDTIESEPSTADTVVPITCAIDSTADPQVSFNSNYIDIESNSEGGSSFVTANEDSVPENTCKEGLVLGQKQPTWVPDSEAPNCMNCQVKFTFTKRRHHCRACGKVFCGVCCNRKCKLQYLEKEARVCVVCYETISKAQAFERMMSPTGSNLKSNHSDECTTVQPPQENQTSSIPSPATLPVSALKQPGVEGLCSKEQKRVWFADGILPNGEVADTTKLSSGSKRCSEDFSPLSPDVPMTVNTVDHSHSTTVEKPNNETGDITRNEIIQSPISQVPSVEKLSMNTGNEGLPTSGSFTLDDDVFAETEEPSSPTGVLVNSNLPIASISDYRLLCDINKYVCNKISLLPNDEDSLPPLLVASGEKGSVPVVEEHPSHEQIILLLEGESFHPVTFVLNANLLVNVKFIFYSSDKYWYFSTNGLHGLGQAEIIILLLCLPNEDTIPKDIFRLFITIYKDALKGKYIENLDNITFTESFLSSKDHGGFLFITPTFQKLDDLSLPSNPFLCGILIQKLEIPWAKVFPMRLMLRLGAEYKAYPAPLTSIRGRKPLFGEIGHTIMNLLVDLRNYQYTLHNIDQLLIHMEMGKSCIKIPRKKYSDVMKVLNSSNEHVISIGASFSTEADSHLVCIQNDGIYETQANSATGHPRKVTGASFVVFNGALKTSSGFLAKSSIVEDGLMVQITPETMNGLRLALREQKDFKITCGKVDAVDLREYVDICWVDAEEKGNKGVISSVDGISLQGFPSEKIKLEADFETDEKIVKCTEVFYFLKDQDLSILSTSYQFAKEIAMACSAALCPHLKTLKSNGMNKIGLRVSIDTDMVEFQAGSEGQLLPQHYLNDLDSALIPVIHGGTSNSSLPLEIELVFFIIEHLF
	binds	GST-CHMP4B (1-224), bacterially expressed (natural protein, human, UniProt Q9H444 1-224, looked up, CHMP4B, residues 1-224, full length; In pGEX-4T1; also called CHMP4B-FL; full length GST-CHMP4B; source: E. coli C41 (DE3), purified (GSTrap HP)) MSVFGKLFGAGGGKAGKGGPTPQEAIQRLRDTEEMLSKKQEFLEKKIEQELTAAKKHGTKNKRAALQALKRKKRYEKQLAQIDGTLSTIEFQREALENANTNTEVLKNMGYAAKAMKAAHDNMDIDKVDELMQDIADQQELAEEISTAISKPVGFGEEFDEDELMAELEELEQEELDKNLLEISGPETVPLPNVPSIALPSKPAKKKEEEDDDMKELENWAGSM
binds	binds	endofin(1–84), yeast two-hybrid construct (domain or fragment, UniProt Q7Z3T8 1-84) MDSYFKAAVSDLDKLLDDFEQNPDEQDYLQDVQNAYDSNHCSVSSELASSQRTSLLPKDQECVNSCASSETSYGTNESSLNEKT
	binds	endofin(1–84) L15V, yeast two-hybrid construct (domain or fragment, UniProt Q7Z3T8 1-84) MDSYFKAAVSDLDKVLDDFEQNPDEQDYLQDVQNAYDSNHCSVSSELASSQRTSLLPKDQECVNSCASSETSYGTNESSLNEKT
	no binding	endofin(1–84) L15E, yeast two-hybrid construct (domain or fragment, UniProt Q7Z3T8 1-84) MDSYFKAAVSDLDKELDDFEQNPDEQDYLQDVQNAYDSNHCSVSSELASSQRTSLLPKDQECVNSCASSETSYGTNESSLNEKT
	no binding	endofin(1–84) L15P, yeast two-hybrid construct (domain or fragment, UniProt Q7Z3T8 1-84) MDSYFKAAVSDLDKPLDDFEQNPDEQDYLQDVQNAYDSNHCSVSSELASSQRTSLLPKDQECVNSCASSETSYGTNESSLNEKT
	no binding	CHMP4B lacking the C-terminal six amino acids (C4BΔCT), yeast two-hybrid construct (domain or fragment, UniProt Q9H444 1-218) MSVFGKLFGAGGGKAGKGGPTPQEAIQRLRDTEEMLSKKQEFLEKKIEQELTAAKKHGTKNKRAALQALKRKKRYEKQLAQIDGTLSTIEFQREALENANTNTEVLKNMGYAAKAMKAAHDNMDIDKVDELMQDIADQQELAEEISTAISKPVGFGEEFDEDELMAELEELEQEELDKNLLEISGPETVPLPNVPSIALPSKPAKKKEEEDDDMKELE
